Measured values taken from patent US20260176310A1 (NAVIGO PROTEINS, published 2026).

Experiments:
[1] = molecular target: T1, hFAP expressed on cell surfaces (HEK293-hFAP cells; native on Wi38 cells) (human, UniProt Q12884 1-760); assay: flow cytometry titration on HEK293-hFAP cells; Affilin dilution series in 100% human serum, 0 h preincubation; detection with rabbit anti-Strep-Tag antibody and anti-rabbit IgG Alexa Fluor 488
T1 construct: whole, on cells; also called cell surface-exposed hFAP
T1 sequence (looked up): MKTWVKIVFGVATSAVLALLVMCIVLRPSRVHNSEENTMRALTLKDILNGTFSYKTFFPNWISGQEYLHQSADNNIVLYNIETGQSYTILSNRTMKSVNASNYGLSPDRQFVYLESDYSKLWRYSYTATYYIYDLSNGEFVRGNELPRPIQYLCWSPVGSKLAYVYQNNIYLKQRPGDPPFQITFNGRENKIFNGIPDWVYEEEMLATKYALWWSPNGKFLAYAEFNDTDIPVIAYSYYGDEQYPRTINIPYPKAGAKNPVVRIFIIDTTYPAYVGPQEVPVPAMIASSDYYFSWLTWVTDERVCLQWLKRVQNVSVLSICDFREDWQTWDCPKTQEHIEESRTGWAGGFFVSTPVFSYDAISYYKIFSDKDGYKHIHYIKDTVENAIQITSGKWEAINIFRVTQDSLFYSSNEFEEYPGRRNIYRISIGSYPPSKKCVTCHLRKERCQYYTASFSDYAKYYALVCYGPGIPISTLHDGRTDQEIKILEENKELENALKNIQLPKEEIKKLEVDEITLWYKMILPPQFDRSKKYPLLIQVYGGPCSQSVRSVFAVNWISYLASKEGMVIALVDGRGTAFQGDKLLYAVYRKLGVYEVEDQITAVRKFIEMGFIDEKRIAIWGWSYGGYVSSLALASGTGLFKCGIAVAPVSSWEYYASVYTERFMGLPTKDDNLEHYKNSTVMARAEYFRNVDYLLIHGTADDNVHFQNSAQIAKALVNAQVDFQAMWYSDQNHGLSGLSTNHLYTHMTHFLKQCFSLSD
Protocol: (§1) Dilution series of Affilin proteins were incubated with human serum for 24 h and 0 h (control) at 37° C. HEK293-hFAP-cells were incubated with dilution series for 45 min at 4° C. Cells were centrifuged and supernatants were removed. Cells were washed with FACS blocking buffer and 100 μl/well rabbit anti-Strep-Tag antibody (GenScript; A00626), 1:300 diluted in FACS blocking buffer were added. After removal of the primary antibody goat anti-rabbit IgG Alexa Fluor 488 antibody (Invitrogen; A11008) was applied in a 1:1000 dilution in FACS blocking buffer. Flow cytometry measurement was conducted on the Guava easyCyte 5HT device from Merck-Millipore at excitation wavelength 488 nm and emission wavelength 525/30 nm.

[2] = molecular target: T1, hFAP expressed on cell surfaces …; assay: flow cytometry titration on HEK293-hFAP cells; Affilin dilution series preincubated 24 h at 37 °C in 100% human serum; detection with rabbit anti-Strep-Tag antibody and anti-rabbit IgG Alexa Fluor 488
Protocol: as §1

- Kd [1]: 1.14 nM
- Kd [2]: 0.89 nM
B1: Affilin®-217863 (designed binder)
chain: MQIFVWTEMHKRITLEVEPSDTIENVKAKIQDKEGIPPDQQHLTWKGKQLEDGRTLSDYNISEWPNLFLRLNLRAA
notes: Ubiquitin mutein
